# In a melting point compilation (Tetko et al.; mined from patent text by program, amines drawn as free bases though some values may be those of a salt):
row,melting point,SMILES
1,171 to 172 °C,CCCCCCc1nc2cnc3ccccc3c2n1CCCCN
2,82 to 84 °C,CC(=O)CCCCn1c(=O)c2c(ncn2Cc2ccccc2)n(C)c1=O
3,69 to 70 °C,C=CCn1nc2c(F)cccc2c1-c1ccc(O)cc1O
